Laboratory results as given in the supplement of paper PMC4604168 (melanoma cell lines).
This is one part of the list. Single values are uncertain, as repeats are few or missing.

Assays:
Test in all cases: cell count relative to DMSO control; melanoma cells; higher = more viable cells
Details in all cases: library dose: low library concentration; 72 h
COLO792 = system: COLO792
COLO800 = system: COLO800
COLO829 = system: COLO829
G361 = system: G361
IPC-298 = system: IPC-298
IST-MEL1 = system: IST-MEL1
LB2518-MEL = system: LB2518-MEL
LOXIMVI = system: LOXIMVI
MEL-HO = system: MEL-HO
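Further: cell number obtained by counting DAPI-stained nuclei in high-throughput microscope images with image analysis software, screen run in 1,536-well plates.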

SMILES	cell count (COLO792) [%]	cell count (COLO800) [%]	cell count (COLO829) [%]	cell count (G361) [%]	cell count (IPC-298) [%]	cell count (IST-MEL1) [%]	cell count (LB2518-MEL) [%]	cell count (LOXIMVI) [%]	cell count (MEL-HO) [%]
Cc1ccc(NC(=O)c2cccc(N(C)C)c2)cc1NC(=O)c1ccc(O)cc1 + O=C(Nc1cccc(Cl)c1)Nc1ncc(CCNc2ncnc3ccsc23)s1 [SNS314] (first compound 2 µM, partner dose 0.0008 µM)	103	104	87	96.1	86.1	95.3	86.1	143	92.4
NC(=O)c1ccc(N(C(N)=O)c2c(F)cccc2F)nc1-c1ccc(F)cc1F + Cn1cncc1[C@@](N)(c1ccc(Cl)cc1)c1ccc2c(c1)c(-c1cccc(Cl)c1)cc(=O)n2C [tipifarnib] (first compound 0.4 µM, partner dose 0.01 µM)	96.1	105	88.8	92.8	97.7	95.5	73.7	113	89.9
CCCCCCCCc1ccc(CCC(N)(CO)CO)cc1 [fingolimod] + Cc1ccc(NC(=O)c2cccc(N(C)C)c2)cc1NC(=O)c1ccc(O)cc1 [ZM336372] (first compound 2 µM, partner dose 2 µM)	108	78.6	87.4	88.9	86.1	99.4		148	92.8
NC(=O)c1ccc(N(C(N)=O)c2c(F)cccc2F)nc1-c1ccc(F)cc1F + O=C(O)C(=O)Nc1sc2c(c1C(=O)O)CCNC2 [TCS401] (first compound 0.4 µM, partner dose 1.66667 µM)	96.1	125	84.3	102	103	105	100	112	93.7
NC(=O)c1ccc(N(C(N)=O)c2c(F)cccc2F)nc1-c1ccc(F)cc1F + O=c1cc(-c2cccc3c2Sc2ccccc2S3)oc(N2CCOCC2)c1 [KU55933] (first compound 0.4 µM, partner dose 1 µM)	89.1	87	113	108	102	105	134	84	98.8
NC(=O)c1ccc(N(C(N)=O)c2c(F)cccc2F)nc1-c1ccc(F)cc1F + C=CCn1c(=O)c2cnc(Nc3ccc(N4CCN(C)CC4)cc3)nc2n1-c1cccc(C(C)(C)O)n1 [MK1775] (first compound 0.4 µM, partner dose 0.02 µM)	89.5	115	85.7	97.2	94.1	99.6	80.6	118	99.4
CCCCCCCCc1ccc(CCC(N)(CO)CO)cc1 [fingolimod] + O=c1cc(-c2cccc3c2Sc2ccccc2S3)oc(N2CCOCC2)c1 [KU55933] (first compound 2 µM, partner dose 1 µM)	102	118	98.2	102	100	99.1		108	97.9
CCCCCCCCc1ccc(CCC(N)(CO)CO)cc1 [fingolimod] + O=C1NC(=O)/C(=C/c2ccc(-c3ccc(F)cc3O)o2)S1 [AS252424] (first compound 2 µM, partner dose 1 µM)	91.9	102	114	104	102	85.8	86.8	77.8	101
NC(=O)c1ccc(N(C(N)=O)c2c(F)cccc2F)nc1-c1ccc(F)cc1F + COC(=O)c1sccc1S(=O)(=O)Nc1ccc(Nc2ccccc2)cc1OC [GSK0660] (first compound 0.4 µM, partner dose 1 µM)	90.8	189	109	91.4	102	95.3	105	171	93.7
NC(=O)c1ccc(N(C(N)=O)c2c(F)cccc2F)nc1-c1ccc(F)cc1F + CC(C)CCN1c2nc(Nc3cc(F)c(O)c(F)c3)ncc2N(C)C(=O)C1C [BID1870] (first compound 0.4 µM, partner dose 0.2 µM)	86.9	93.7	93.2	85.4	96.1	86.3		81.9	101
CC(C)(C)c1cnc(CSc2cnc(NC(=O)C3CCNCC3)s2)o1 + COc1cc2c(Oc3ccc4[nH]c(C)cc4c3F)ncnc2cc1OCCCN1CCCC1 [cediranib] (first compound 0.01 µM, partner dose 0.4 µM)	86.7	81.6	94.4	122	110	102	87.1	157	93.7
NC(=O)c1ccc(N(C(N)=O)c2c(F)cccc2F)nc1-c1ccc(F)cc1F + N#Cc1c(O)c2c(-c3ccc(-c4ccccc4O)cc3)csc2[nH]c1=O [A769662] (first compound 0.4 µM, partner dose 2 µM)	93.1	85.3	110	93.7	109	88.5	91.5	143	99.1
Cc1ccc(NC(=O)c2cccc(N(C)C)c2)cc1NC(=O)c1ccc(O)cc1 + CN(NC(=O)CC(=O)NN(C)C(=S)c1ccccc1)C(=S)c1ccccc1 [STA4783] (first compound 2 µM, partner dose 0.006 µM)	84.7	76.5	67.1	75.3	72.9	77.1	66.9	130	84.4
CCCCCCCCc1ccc(CCC(N)(CO)CO)cc1 [fingolimod] + Oc1cc(-c2nc(-c3ccccc3)[nH]c2-c2ccncc2)ccc1Cl [L779450] (first compound 2 µM, partner dose 0.2 µM)	91.7	92.2	120	96.4	79.9	104	98.6	114	94
CCCCCCCCc1ccc(CCC(N)(CO)CO)cc1 [fingolimod] + CN(NC(=O)CC(=O)NN(C)C(=S)c1ccccc1)C(=S)c1ccccc1 [STA4783] (first compound 2 µM, partner dose 0.006 µM)	77.9	68.3	71.1	96.4	90.2	63.2	90.2	58.7	78.1
CCCCCCCCc1ccc(CCC(N)(CO)CO)cc1 [fingolimod] + COc1cc(N2CCC(N3CCN(C)CC3)CC2)ccc1Nc1ncc(Cl)c(Nc2ccccc2S(=O)(=O)C(C)C)n1 [NVP-TAE684] (first compound 2 µM, partner dose 0.08 µM)	105	57.7	80.9	94.1	95.4	98.1		108	94.3
CCCCCCCCc1ccc(CCC(N)(CO)CO)cc1 [fingolimod] + O=C(CCCCCCC(=O)Nc1ccccc1)NO [vorinostat] (first compound 2 µM, partner dose 0.08 µM)	102	62	101	95.7	106	97.7		62	94.7
NC(=O)c1ccc(N(C(N)=O)c2c(F)cccc2F)nc1-c1ccc(F)cc1F + COc1ccc(COc2ccc(Cc3cnc(N)nc3N)cc2OC)cc1 [GW2580] (first compound 0.4 µM, partner dose 1 µM)	96.4	106	111	97.3	97.8	98.5	101	189	88.4
NC(=O)c1ccc(N(C(N)=O)c2c(F)cccc2F)nc1-c1ccc(F)cc1F + O=C(CCCCCCC(=O)Nc1ccccc1)NO [vorinostat] (first compound 0.4 µM, partner dose 0.08 µM)	91.9	77.6	85.4	88	97.8	94.9	83.6	120	92.2
Cc1ccc(NC(=O)c2cccc(N(C)C)c2)cc1NC(=O)c1ccc(O)cc1 + Cn1cncc1[C@@](N)(c1ccc(Cl)cc1)c1ccc2c(c1)c(-c1cccc(Cl)c1)cc(=O)n2C [tipifarnib] (first compound 2 µM, partner dose 0.01 µM)	97.3	130	109	86.6	87.3	95.4	71.9	98.3	92
CCCCCCCCc1ccc(CCC(N)(CO)CO)cc1 [fingolimod] + CCCCCCCCCCCC1=C(O)C(=O)C=C(O)C1=O [Embelin] (first compound 2 µM, partner dose 1.2 µM)	110	72.9	95.4	105	103	98.6	103	82.7	96.4
CCCCCCCCc1ccc(CCC(N)(CO)CO)cc1 [fingolimod] + COC(=O)c1sccc1S(=O)(=O)Nc1ccc(Nc2ccccc2)cc1OC [GSK0660] (first compound 2 µM, partner dose 1 µM)	74	133	100	79.8	94.4	108	112	113	89.4
NC(=O)c1ccc(N(C(N)=O)c2c(F)cccc2F)nc1-c1ccc(F)cc1F + Oc1nc(-c2ccc(C(F)(F)F)cc2)nc2c1CSCC2 [XAV939] (first compound 0.4 µM, partner dose 2 µM)	72.9	109	109	93.4	102	102		89.6	101
